Results as given in PubChem BioAssay AID1745853 (National Center for Advancing Translational Sciences (NCATS), 2022).
“And” between values parts separate entries of the source, which are not always exact repeats. Equal values may be shown once. The list shows a part of the results. Further columns of the screen follow, without active or inactive calls.

Columns and labels:
Assay in all cases: Primary Screen for Target Class Profiling of Small Molecule Inhibitors of Methyltransferases
[1] = biological target: Glycine N-methyltransferase (Homo sapiens) (UniProt Q14749); settings: purified enzyme, MTase-Glo SAH luminescence; measured here: GNMT inhibition; at 40 µM; stronger effect = lower value
In short: (§1)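 Each enzyme was reacted with SAM and its substrate, with compounds tested once at 40 uM; SAH formed was read by MTase-Glo luminescence.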

[2] = biological target: Guanidinoacetate N-methyltransferase (Homo sapiens) (UniProt Q14353); settings: purified enzyme, MTase-Glo SAH luminescence; measured here: GAMT inhibition; at 40 µM; stronger effect = lower value
In short: as §1

[3] = biological target: Histamine N-methyltransferase (Homo sapiens) (UniProt P50135); settings: purified enzyme, MTase-Glo SAH luminescence; measured here: HNMT inhibition; at 40 µM; stronger effect = lower value
In short: as §1

[4] = biological target: Nicotinamide N-methyltransferase (Homo sapiens) (UniProt P40261); settings: purified enzyme, MTase-Glo SAH luminescence; measured here: NNMT inhibition; at 40 µM; stronger effect = lower value
In short: as §1

[5] = biological target: Phenylethanolamine N-methyltransferase (Homo sapiens) (UniProt P11086); settings: purified enzyme, MTase-Glo SAH luminescence; measured here: PNMT inhibition; at 40 µM; stronger effect = lower value
In short: as §1
On the % scale 0 is the no-effect control and ±100 the full control effect.

SMILES	activity change, negative = inhibition [1]	activity change, negative = inhibition [2]	activity change, negative = inhibition [3]	activity change, negative = inhibition [4]	activity change, negative = inhibition [5]
O=S(=O)(c1ccc(Cl)cc1)c1nnn2c1nc(NCc1ccccc1)c1ccccc12	-1.26%	1.84%	6.71%	10.1%	1.35%
CCCn1c(=O)c2ccccc2n2c(=O)n(Cc3ccc(C)cc3)nc12	3.87%	0%	11.3%	-8.51%	6.79%
CCCn1c(=O)c2ccccc2n2c(SCC(=O)Nc3cccc(F)c3)nnc12	-5.43%	0.98%	-2.02%	-8.5%	-2.16%
COc1cccc(-c2nnc3n(Cc4ccc(C)cc4)c(=O)c4ccccc4n23)c1O	-17.9%	-2.64%	-5.08%	-9.03%	-8.04%
CCOC(=O)c1cc2n(n1)CC(C)(C(=O)NC1CCCCC1)N(c1ccc(CC)cc1)C2=O (stereo unspecified)	0.097%	2.79%	-9.78%	2.59%	0.383%
COc1ccccc1CN1C(=O)c2ccc(-c3ccccc3)n2CC1(C)C(=O)NC1CCCC1 (stereo unspecified)	2.52%	3.99%	6.44%	-0.623%	2.35%
S=C(Nc1ccccc1)Nc1nccs1	-19.9%	11.3%	7.45%	-3.63%	4.03%
CCCn1c(=O)c2cc(F)ccc2n2c(SCC(=O)NC3CCCCC3)nnc12	4.14%	0%	8.13%	5.76%	5.79%
COc1ccc(CN2C(=O)O[C@@H]3CN(c4nc(C)cc(C)n4)C[C@@H]32)cc1OC	-4.03%	-7.75%	-1.72%	-8.83%	-9.17%
CC1(C(=O)NC2CCCCC2)Cn2c(cc3sccc32)C(=O)N1Cc1cccc(F)c1 (stereo unspecified)	4.04%	0.685%	6.49%	-4.09%	2.69%
COCCOC1CCOC2(CCN(C(=O)c3cnccn3)CC2)C1 (stereo unspecified)	-1.27%	-0.563%	1.41%	-0.598%	-2.04%
COCC(=O)N[C@H]1C[C@H]2C(=O)NC[C@@H](CCC(=O)N3CCN(c4ccccc4)CC3)N2C1	-5.92%	-3.35%	-3.89%	-5.42%	-5.94%
c1cc(-c2noc([C@@H]3CCCN3Cc3ncc[nH]3)n2)cc(N2CCCC2)n1	-8.31%	-6.51%	-12.1%	-14.5%	-6.25%
COCCOc1cc2nc[nH]c(=O)c2cc1OCCOC	2.25%	15.5%	6.52%	0.343%	7.88%
Cc1noc(C)c1CN1CCC2(CC1)C(C(=O)O)CC(=O)N2C (stereo unspecified)	-4.84%	-2.45%	-1.04%	-8.23%	10.1%
CCC(C)NC(=O)c1ccc2c(=O)n(C(C)C)c3nn(CC(=O)N(C)c4ccccc4)c(=O)n3c2c1 (stereo unspecified)	0.262%	4.87%	-2.1%	-0.771%	2.33%
Cc1c(C(=O)O)ccc2c1N[C@@H](c1cccc(C(F)(F)F)c1)[C@H]1CC=C[C@@H]21	-35.7%	-7.24%	-12.1%	-9.38%	-18.9%
CC(C)=CCC/C(C)=C/CCC1(C)Oc2c(c(O)cc3c2CN(C(CCC(=O)O)C(=O)O)C3=O)CC1O (stereo unspecified)	-0.244%	1.42%	7.31%	-12.7%	-2.62%
CCCNC(=O)C1N(c2ccc(OC)cc2)C(=O)C12CCCCC2 (stereo unspecified)	0.805%	1.03%	0.836%	-3.2%	3.49%
O=C(CCc1nnc2n(Cc3ccccc3)c(=O)c3ccccc3n12)N1CCN(c2ncccn2)CC1	-13.1%	3.57%	-2.87%	-6.25%	-5.22%
O=C(CC(c1ccccc1)c1ccccc1)N1CCN(C(c2ccccc2)c2ccccc2)CC1	1.9%	-30.6%	-4.86%	-30.9%	-20.7%
CC(C)OCCCn1c(=O)c2ccccc2n2c(SCC(=O)Nc3ccc(C(C)C)cc3)nnc12	-0.236%	0%	7.39%	-10.1%	2.94%
CN(C)C[C@@H]1CN(C)C[C@H]1NC(=O)c1cnccn1	-7.64%	-16.5%	-3.99%	-12.8%	-10.1%
CCCn1c(=O)c2ccc(Cl)cc2n2c(=O)n(CC(=O)Nc3ccccc3OC)nc12	-1.48%	4.9%	8.88%	-1.98%	2.05%
COc1ccc(N2C(=O)c3cc4ccccc4n3CC2(C)C(=O)NC2CCCCC2)c(OC)c1 (stereo unspecified)	-6.98%	1.64%	6.76%	-22.9%	-0.82%
Cc1ccccc1NS(=O)(=O)c1cc2[nH]c(=O)[nH]c2cc1C	-2.91%	0%	-3.58%	-3.47%	-8.11%
CN(C)c1cccc(C(=O)NC2CCN(c3cc(-c4cccs4)[nH]n3)C2)c1 (stereo unspecified)	-9.53%	-2.66%	-1.16%	-12.7%	-6.47%
CC1CCN(S(=O)(=O)c2ccc3c(ccn3CC(=O)NCc3ccccc3)c2)CC1	-2.02%	4.56%	0.667%	2.87%	-2.21%

SMILES	activity change, negative = inhibition [1]	activity change, negative = inhibition [2]	activity change, negative = inhibition [3]	activity change, negative = inhibition [4]	activity change, negative = inhibition [5]
c1ccc(-c2cnc(Nc3ccc(OCCN4CCCC4)cc3)s2)cc1	-3.17%	7.66%	-35.6%	-24.5%	-10.3%
C=C(F)c1sc(CNCCCNc2cc(=O)c3ccccc3[nH]2)c(C)c1Br	-0.488%	-1.21%	-18.9%	-51.7%	-74.5%
Cn1c(/C=C/C(=O)NO)ccc1/C=C/C(=O)c1cccc(F)c1	–	2.28%	–	-10.3%	2.43%
Cc1ccccc1CSc1nnc2n(CCCOC(C)C)c(=O)c3cc(Cl)ccc3n12	0.411%	0%	4.86%	-4.24%	4.03%
CC(C)CNC(=O)c1ccc2c(=O)n(C)c3nn(CC(=O)NC4CCCC4)c(=O)n3c2c1	8.01%	2.61%	11.6%	5.9%	9.3%
CCOc1ccc(CCNC(=O)CCc2nnc3n(CCc4ccccc4)c(=O)c4ccccc4n23)cc1	-7.11%	-1.3%	-6.51%	-4.4%	-11.2%
CC[C@H]1OC(=O)[C@H](C)C(=O)[C@H](C)[C@@H](OC2O[C@H](C)C[C@H](N(C)C)[C@H]2O)[C@@H](C)C[C@@H](C)C(=O)/C=C/[C@]1(C)O (stereo partly specified)	-1.31%	-7.27%	1.12%	-17%	0.205%
F[C@@H]1CN(C2CCC2)C[C@@H]1OCc1nc2ncccc2[nH]1	-3.03%	-5.65%	-2.87%	-11.9%	-7.68%
CC[C@@H](C)Nc1cc(C(=O)NC2CC3CC[C@@H](C2)N3c2ccc(C(=O)C3CC3)cn2)c(C)cc1C(N)=O (stereo partly specified)	0.819%	-0.559%	-1.92%	-47.6%	-6.82%
O=c1c2ccccc2n2c(-c3ccc(F)c(F)c3)nnc2n1Cc1ccc(F)cc1	0.525%	1.66%	5.32%	3.57%	4.55%
CCCN1C(=O)c2c(C(=O)NCc3ccc(OC(C)C)cc3)ncn2CC1(C)C(=O)NC1CCCC1 (stereo unspecified)	1.37%	1.7%	3.1%	-0.215%	7.41%
C/C=C(/C)C(=O)O[C@@H]1C[C@@H](OC(=O)/C(C)=C\C)[C@@]2(C)C3C(=O)C=C(C)C2C3C1(C)C	-4.32%	-8.67%	6.87%	-23.6%	-4.45%
CS(=O)(=O)c1cccc(CNc2nc(Nc3ccc4c(c3)CCC(=O)N4)ncc2C(F)(F)F)c1	-53.2% and -80.6%	-6.15% and -3.7%	-4.13% and 0.717%	-33.3% and -57.8%	-7.37% and -2.76%
C[C@@H]1O[C@@H](O[C@@H]2[C@@H](O)[C@H](O[C@@H]3[C@@H](O)[C@@H](O)[C@H](O[C@H]4[C@H](OC(=O)[C@]56CCC(C)(C)C[C@H]5C5=CCC7[C@@]8(C)C[C@H](O)[C@H](O[C@@H]9O[C@H](C(=O)O)[C@@H](O)[C@H](O)[C@H]9O)[C@@](C)(CO)C8[C@H](O)C[C@@]7(C)[C@]5(C)CC6)OC[C@H](O)[C@@H]4O)O[C@H]3C)OC[C@H]2O)[C@H](O)[C@H](O)[C@H]1O (stereo partly specified)	-1.8%	2.93%	3.12%	-7.39%	8.86%
COc1cccc(-c2cccc(C(=O)N3C[C@H](CO)C[C@H](CN(C)C)C3)c2)c1	-8.21%	-8.05%	-85.6%	-12.2%	-4.22%
Cc1onc(-c2ccccc2Cl)c1C(=O)N(C)c1ccc(Cl)cc1	8.1%	3.25%	5.52%	-13.2%	-2.51%
CO[C@H]1C[C@@H]2CC[C@@H](C)[C@@](O)(O2)C(=O)C(=O)N2CCCC[C@H]2C(=O)O[C@H]([C@H](C)C[C@H]2CC[C@@H](OP(C)(C)=O)[C@H](OC)C2)CC(=O)[C@H](C)/C=C(\C)[C@@H](O)[C@@H](OC)C(=O)[C@H](C)C[C@H](C)/C=C/C=C/C=C/1C	-0.678%	14.5%	11.6%	4.38%	7.38%
Cc1ccc(S(=O)(=O)N2CCc3nc(N(C)Cc4cccnc4)[nH]c(=O)c3CC2)cc1	-5.63%	-7.12%	-3.41%	-18.1%	-11.9%
CC1(C)CCC(CN2CCN(c3ccc(C(=O)NS(=O)(=O)c4ccc(NCC5CCOCC5)c([N+](=O)[O-])c4)c(Oc4cnc5[nH]ccc5c4)c3)CC2)=C(c2ccc(Cl)cc2)C1	-4.2%	-19.6%	4.71%	-52.7%	-23.7%
Cc1cccc(N2CCN(C(=O)CCc3nnc4n(Cc5ccc(F)cc5)c(=O)c5ccccc5n34)CC2)c1C	-1.5%	-1.62%	0.447%	-7.02%	-3.77%
CCc1noc(-c2cn(C3CCN(C(=O)Cc4cccc(OC)c4)CC3)nn2)n1	-7.12%	-6.94%	-4.39%	-11.7%	-2.03%
COc1ccc(-c2noc(-c3cccn3CC(=O)NC(C)C)n2)cc1F	-5.64%	-8.55%	-3.45%	-8%	-7.78%
CC(C)(C)n1nc(-c2ccc(Cl)cc2)c2c(N)ncnc21	–	0.509%	–	-35.3%	-2.48%
CCOCCCNC(=O)N1CCn2c(C)ccc2C1C(C)C (stereo unspecified)	16.4%	0%	0.676%	-5.2%	3.22%
CC1CCCCN1c1nc2c(S(=O)(=O)c3ccccc3)nnn2c2ccc(Cl)cc12 (stereo unspecified)	-8.57%	-0.207%	-7.01%	-5.78%	-9.71%
Cc1ccc(CNS(=O)(=O)c2cc3c(cc2C)n(C)c(=O)n3C)cc1	1.77%	0%	-4.59%	-4.54%	-0.977%
CCCCN1C(=O)c2cc(C(=O)NCc3ccccc3OCC)nn2CC1(C)C(=O)NC1CCCC1 (stereo unspecified)	7.46%	1.38%	4.27%	1.53%	4.14%
